# The supplement of paper PMC3334620
# Whole data set: some 33,000 sequences, median “E-score (-0.5 to 0.5)” near -0.054, cut for the highest 2% near 0.39. The list shows a part of the results.
# Target: Ylr278c (UniProt Q05854)
# Experiment: PBM E-score (8-mer binding enrichment) (E-score (-0.5 to 0.5)); higher = stronger / more preferred TF binding; most listed sequences are background and not binding sites
# Conditions: protein concentration: 200 nM; construct: GST-DNA-binding domain
# Protocol: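 Universal 'all 10-mer' protein binding microarrays (Agilent AMADID 015681) probed with GST-tagged S. cerevisiae TFs (full-length or DBD) made by in vitro transcription/translation (PURExpress), about 100-200 nM. Bound TF was detected with fluorescent anti-GST. Each ungapped 8-mer (which stands for itself and its reverse complement) is scored by the PBM enrichment score (E-score), a modified Wilcoxon-Mann-Whitney statistic from -0.5 to +0.5, computed with the Universal PBM Analysis Suite. Scale: above 0.35 generally sequence-specific binding.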
row,Sequence,PBM E-score
1,AAAACACG,0.135
2,ATATGTAG,-0.163
3,ATGCAGAA,-0.16
4,GCAGTAAA,0.147
5,AGCTTAAC,-0.233
6,AGTTTTCC,0.287
7,ATATCATG,-0.198
8,CCTTCTAA,-0.258
9,CGAATACA,0.13
10,ATGTGCAG,-0.133
11,CCTAGGGC,-0.174
12,ATTATTAC,-0.0102
13,CATGAATG,0.00658
14,CGTGGGCC,0.135
15,AGCAAAAT,0.0814
16,CTGGACGA,-0.242
17,AAAACGGC,0.178
18,CGGAACAA,0.427
19,AGTCGGTC,0.159
20,AATGTTAC,0.0415
21,CGGTCTTA,0.264
22,AGCTTCTC,-0.104
23,GGTGGCGA,-0.154
24,CACATACC,-0.0905

row,Sequence,PBM E-score
1,GAACTTAC,-0.11
2,GTCACGAA,-0.0546
3,CGGACAAA,0.425
4,CGATGTGA,-0.163
5,ATACCTGG,-0.0503
6,CAGTGAGA,-0.163
7,TCCAAACA,-0.094
8,CGCTTTTC,0.138
9,GACAAGAC,0.0549
10,AACGTTGT,-0.0929
11,CGAAGACG,0.134
12,CTCTGGCA,-0.178
13,CTTTTACC,0.039
14,AATCAGCC,-0.121
15,TTCTTCAA,-0.124
16,TAAGATAA,-0.124
17,CTGTTGTC,0.00406
18,ATCTTGAA,-0.0822
19,AGGGTACA,-0.2
20,ACAGGGTC,-0.0349
21,CGTCTTAA,-0.191
22,GTTTATGA,-0.0773
23,ATGAACCA,-0.0664
24,ATCAGCAT,-0.0349

row,Sequence,PBM E-score
1,ACGAGGAG,-0.242
2,AAGTGGGC,-0.124
3,AAAAGTTT,-0.0921
4,CGACCTCA,-0.181
5,CCCTACGA,-0.254
6,CATGTGTC,-0.184
7,CCCAGAGA,-0.233
8,AATATACC,0.0793
9,ACCATACC,0.0757
10,ACTCCTAC,0.0382
11,AGACTCGG,0.126
12,CTGCCCAC,-0.24
13,GCATAAGC,-0.11
14,CAACATTA,-0.151
15,ATACCAAG,0.0375
16,ACGTCGAC,-0.122
17,ACCACTCT,-0.243
18,TGCGAGAA,-0.0828
19,CCTACTAA,0.00789
20,ACTTATCG,0.137
21,CCGGTTCC,0.343
22,CGAGCCCG,0.134
23,CCGTGGAA,0.255
24,CCTGGCAG,-0.32

row,Sequence,PBM E-score
1,CCCTAACC,-0.0438
2,TATGCTGA,-0.113
3,ACTGCAAA,-0.0753
4,CACTTGTA,-0.208
5,TAACTGAA,-0.178
6,TTAGAAAA,0.00204
7,ACTTTTCG,0.0993
8,CTGAGCTA,-0.145
9,GCAGTGCA,-0.178
10,ACCACGGA,0.341
11,CAGTTCAC,-0.0673
12,AGAGGCAC,-0.23
13,CACACAAA,-0.188
14,GTGCGCGA,0.145
15,ATATTGTG,-0.181
16,ATTAACAG,-0.168
17,GTCAGCTA,-0.379
18,GTATGGCA,-0.204
19,CAGTATCA,-0.185
20,ATGCCACG,-0.0392
21,ACGACAAG,-0.225
22,GACAGTCC,0.0326
